Assay results taken from a collection of fitness landscapes (doi:10.1016/j.celrep.2020.107928).
In all, about 81,000 sequences were measured (“one-hybrid fitness for binding NBS DNA”: median about -0.1, highest 2% from about 0.36 on). The list shows a part of the results.

B1: Caulobacter ParB omega fusion; a variant is named by its letters at X, in order, B8GW30 (parent)
chain: MESVVVGEPGMSEGRRGLGRGLSALLGEVDAAPAQAPGEQLGGSREAPIEILQRNPDQPRRTFREEDLEDLSNSIREKGVLQPILVRPSPDTAGEYQIVAGERAWRAAQRAGLKTVPIMVRELDDLAVLEIGIIENVQRADLNVLEEALSYKVLMEKFERTQENIAQTIGKSXSHVANXMRLLXLPDEVQSYLVSGELTAXHARAIAAAADPVALAKQIIEGGLSVRETEALARKAPNLSAGKSKGGRPPRVKDTDTQALESDLSSVLGLDVSIDHRGSTGTLTITYATLEQLDDLCNRLTRGI

Variants of: B1
Experiment: one-hybrid fitness for binding NBS DNA (the Noc-binding site; scaled: cognate 1, non-cognate 0); higher = stronger binding
Settings: with NBS DNA site
Procedure, shortened: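 In E. coli USO, a HIS3 reporter with its site placed 19 bp from the promoter was used to select Caulobacter ParB variants randomised at four specificity codons. Growth lasted 48 hours at 37°C on histidine-free M9 containing 0.1 mM IPTG and 5 mM 3-AT. Fitness was taken as the log change in variant-to-wild-type read ratio from Illumina sequencing of pre- and post-selection plasmids, rescaled between the non-cognate and cognate sites.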

Variant	one-hybrid fitness for binding NBS DNA
YAAP	≤ 0.2
QSQP	≤ 0.2
RKSE	≤ 0.2
CFYG	≤ 0.2
QMQC	≤ 0.2
HLRA	≤ 0.2
YTVY	≤ 0.2
GIYS	≤ 0.2
ITSN	≤ 0.2
CNHN	≤ 0.2
IDLF	≤ 0.2
QVNL	≤ 0.2
ANNT	≤ 0.2
PQYD	≤ 0.2
QSGS	0.358
LAIW	≤ 0.2
QSWF	≤ 0.2
HIKI	≤ 0.2
HKPS	≤ 0.2
CGRG	≤ 0.2
GSQR	≤ 0.2
RLSP	≤ 0.2
ASVV	≤ 0.2
NYNV	≤ 0.2

Variant	one-hybrid fitness for binding NBS DNA
QRDF	≤ 0.2
MQSA	≤ 0.2
RFRQ	≤ 0.2
WFWG	≤ 0.2
SNSR	≤ 0.2
PWWC	≤ 0.2
QIHG	≤ 0.2
VKSV	≤ 0.2
GHGG	≤ 0.2
IANS	≤ 0.2
WPRF	≤ 0.2
ISLS	≤ 0.2
TEMY	≤ 0.2
PFLW	≤ 0.2
CAPS	≤ 0.2
RQNC	≤ 0.2
RQGL	≤ 0.2
YPAR	≤ 0.2
MSKT	≤ 0.2
HLYP	≤ 0.2
LRTV	≤ 0.2
ARQR	≤ 0.2
YMTT	≤ 0.2
PYAN	≤ 0.2

Variant	one-hybrid fitness for binding NBS DNA
SKSQ	≤ 0.2
ARVL	≤ 0.2
YHKF	≤ 0.2
QYMF	≤ 0.2
YVNL	≤ 0.2
VDWD	≤ 0.2
NDAR	≤ 0.2
MHVC	≤ 0.2
WFPY	≤ 0.2
MHPY	≤ 0.2
LSWK	≤ 0.2
HSEI	≤ 0.2
SVPA	≤ 0.2
IAPR	≤ 0.2
HALT	≤ 0.2
VRKV	≤ 0.2
SSHA	≤ 0.2
RPPG	≤ 0.2
LKTD	≤ 0.2
TDPW	≤ 0.2
HARV	≤ 0.2
LYGV	≤ 0.2
AGHK	≤ 0.2
ERHS	≤ 0.2

Variant	one-hybrid fitness for binding NBS DNA
KRVM	≤ 0.2
WMWS	≤ 0.2
MSRI	≤ 0.2
VPLL	≤ 0.2
SVSY	≤ 0.2
WIQL	≤ 0.2
KAEI	≤ 0.2
SKNT	≤ 0.2
MPPN	≤ 0.2
PHDC	≤ 0.2
QPCE	≤ 0.2
RPVL	≤ 0.2
RKEI	≤ 0.2
LCRC	≤ 0.2
KIHN	≤ 0.2
ESRS	≤ 0.2
CRRM	≤ 0.2
MHQS	≤ 0.2
DHRR	0.224
AKPR	≤ 0.2
RRFC	0.362
LALE	≤ 0.2
VSDK	≤ 0.2
AWHT	≤ 0.2

Variant	one-hybrid fitness for binding NBS DNA
PKIL	≤ 0.2
FKSR	≤ 0.2
HLYD	≤ 0.2
AAPY	≤ 0.2
QGTA	≤ 0.2
QLND	≤ 0.2
MNAV	≤ 0.2
LKNG	≤ 0.2
MLNC	≤ 0.2
NAVT	≤ 0.2
QRLC	0.294
APKY	≤ 0.2
RHWM	≤ 0.2
AFCG	≤ 0.2
RKSS	0.544
ATRY	≤ 0.2
TQWY	≤ 0.2
QKMR	0.51
CGSI	≤ 0.2
PGFD	≤ 0.2
NNQT	≤ 0.2
MMLT	≤ 0.2
PTAI	≤ 0.2
DNPA	≤ 0.2

Variant	one-hybrid fitness for binding NBS DNA
QNLA	≤ 0.2
LERL	≤ 0.2
VSHN	≤ 0.2
QHAD	≤ 0.2
AEAL	≤ 0.2
PDHW	≤ 0.2
RGQK	≤ 0.2
KYLT	≤ 0.2
PPHD	≤ 0.2
ISRF	≤ 0.2
QARP	0.24
DDIS	≤ 0.2
ENLR	≤ 0.2
PSSY	≤ 0.2
MPKP	≤ 0.2
GYNV	≤ 0.2
TEYR	≤ 0.2
RAEP	≤ 0.2
YETS	≤ 0.2
DRRA	≤ 0.2
DNDS	≤ 0.2
HMTE	≤ 0.2
FVGE	≤ 0.2
DSYV	≤ 0.2

Variant	one-hybrid fitness for binding NBS DNA
VPLY	≤ 0.2
ITHM	≤ 0.2
DFYG	≤ 0.2
RSSP	≤ 0.2
QHMM	≤ 0.2
VPCK	≤ 0.2
HNLH	≤ 0.2
GFRD	≤ 0.2
LGPF	≤ 0.2
REIW	≤ 0.2
TYNM	≤ 0.2
KIYT	≤ 0.2
RREW	≤ 0.2
GYYC	≤ 0.2
TKNA	≤ 0.2
KLAW	≤ 0.2
PICM	≤ 0.2
QYFE	≤ 0.2
MFHC	≤ 0.2
ANRY	≤ 0.2
NKSR	≤ 0.2
RQEC	≤ 0.2
HSFT	≤ 0.2
PILF	≤ 0.2

Variant	one-hybrid fitness for binding NBS DNA
HVFT	≤ 0.2
SVRV	≤ 0.2
VADK	≤ 0.2
LGLN	≤ 0.2
EAPE	≤ 0.2
QGDN	≤ 0.2
LYQY	≤ 0.2
FWTP	≤ 0.2
LLSK	≤ 0.2
IQVR	≤ 0.2
VPAR	≤ 0.2
HGFL	≤ 0.2
HDSN	≤ 0.2
IRNP	≤ 0.2
SDRT	≤ 0.2
TEAP	≤ 0.2
ACPN	≤ 0.2
GRNR	≤ 0.2
KSEG	≤ 0.2
FMAM	≤ 0.2
LWPN	≤ 0.2
RFEP	≤ 0.2
VDNV	≤ 0.2
QFRP	≤ 0.2

Variant	one-hybrid fitness for binding NBS DNA
TIRT	≤ 0.2
YAVE	≤ 0.2
RAID	≤ 0.2
KCYC	≤ 0.2
SVNN	≤ 0.2
NMLC	≤ 0.2
NHCG	≤ 0.2
LLRW	≤ 0.2
AAHN	≤ 0.2
THMY	≤ 0.2
RYHT	0.45
NDMY	≤ 0.2
PYNW	≤ 0.2
LHAE	≤ 0.2
VSRK	≤ 0.2
LMEY	≤ 0.2
TDHP	≤ 0.2
NHFV	≤ 0.2
IFLC	≤ 0.2
QTIA	0.224
FITT	≤ 0.2
TIKP	≤ 0.2
QRWL	≤ 0.2
PVCG	≤ 0.2

Variant	one-hybrid fitness for binding NBS DNA
CYET	≤ 0.2
KWSA	≤ 0.2
CPNS	≤ 0.2
LCCE	≤ 0.2
VQEA	≤ 0.2
TQQT	≤ 0.2
SMGS	≤ 0.2
IECV	≤ 0.2
EPRY	≤ 0.2
QNYV	≤ 0.2
DTGW	≤ 0.2
RTQE	≤ 0.2
QRNK	0.488
PSPA	≤ 0.2
ARQE	≤ 0.2
NPWK	≤ 0.2
DAFS	≤ 0.2
YDPP	≤ 0.2
KSIR	≤ 0.2
APLA	≤ 0.2
QIIF	≤ 0.2
SIES	≤ 0.2
PYML	≤ 0.2
LKRR	≤ 0.2

Variant	one-hybrid fitness for binding NBS DNA
NFTS	≤ 0.2
RWDI	≤ 0.2
GRFS	≤ 0.2
RGHA	≤ 0.2
IARD	≤ 0.2
QRNF	0.327
TCEI	≤ 0.2
ASNF	≤ 0.2
GHGS	≤ 0.2
PDVC	≤ 0.2
SYNC	≤ 0.2
QCVC	≤ 0.2
RFCQ	≤ 0.2
MPIT	≤ 0.2
WPPD	≤ 0.2
QHYS	0.324
MRGL	≤ 0.2
QSWA	≤ 0.2
GMNW	≤ 0.2
KQCT	≤ 0.2
MTVL	≤ 0.2
ELHR	≤ 0.2
QAPP	≤ 0.2
FGPR	≤ 0.2

Variant	one-hybrid fitness for binding NBS DNA
LLRE	≤ 0.2
NYDG	≤ 0.2
GGDN	≤ 0.2
RARF	≤ 0.2
QRPA	0.207
FDNY	≤ 0.2
YYTT	≤ 0.2
RILD	≤ 0.2
GRSM	≤ 0.2
TFYD	≤ 0.2
ALIE	≤ 0.2
ECRA	≤ 0.2
YIKT	≤ 0.2
QLRT	0.668
NREM	≤ 0.2
LHQG	≤ 0.2
AMPK	≤ 0.2
ETRT	≤ 0.2
SGND	≤ 0.2
LKTA	≤ 0.2
VPKL	≤ 0.2
PMHN	≤ 0.2
RCTM	≤ 0.2
YHSA	≤ 0.2

Variant	one-hybrid fitness for binding NBS DNA
WACR	≤ 0.2
MKSD	≤ 0.2
SVTE	≤ 0.2
EYQG	≤ 0.2
TRFR	0.221
KSCD	≤ 0.2
AWYP	≤ 0.2
ECLN	≤ 0.2
RMEH	≤ 0.2
APKG	≤ 0.2
HPNA	≤ 0.2
GRNG	≤ 0.2
ICNV	≤ 0.2
RLCC	≤ 0.2
DGQG	≤ 0.2
RDGF	≤ 0.2
CSTV	≤ 0.2
TNWP	≤ 0.2
